# In PubChem BioAssay AID463173 (ICCB-Longwood Screening Facility, Harvard Medical School, 2010):
# Among all 52,000 compounds or so, about 1,700 (3.3%) were called active. No stated cut-off is given here; in the data, active means survival mostly below about 52% (no sharp cut-off); inactive means mostly above about 56%. This is one part of the list.
# System: Wild type
# Assay: growth inhibition of S. aureus wild type versus tarO mutant, primary screen, teichoic acid synthesis inhibitors, RN4220, OD600 (AID 463173)
# Conditions: S. aureus RN4220 wild type/DeltatarO growth, OD600, 18 h, stronger effect = lower value, screened at 18.75 µg/mL (by protocol)
row,SMILES,survival
1,COc1cccc(NS(=O)(=O)c2ccc3c(c2)CCCN3C(=O)C2CCC2)c1,inactive: 143%
2,Cc1cc2nc(-c3cccc(NC(=O)CSc4ccc(Cl)cc4)c3)oc2cc1C,inactive: 74%
3,COc1ccc(-c2nn(-c3cccc([N+](=O)[O-])c3)c3c2cnc2cc4c(cc23)OCO4)cc1,inactive: 68%
4,CCCN(C(=O)c1cc2c(s1)-c1c(C)cccc1OC2)c1ccc(OCC)cc1,inactive: 95%
5,CC(C)c1ccc(Nc2nc3c(S(=O)(=O)c4ccc(Br)cc4)nnn3c3ccsc23)cc1,inactive: 76%
6,COc1ccc(C2c3[nH]c4ccc(OC)cc4c3CCN2C(=O)Nc2ccccc2)cc1 (stereo not drawn),inactive: 78%
7,O=C(O)CCNc1ccc(Cl)cn1,inactive: 86%
8,CN1CCC(OC(=O)c2cc3cc(Cl)cc(Cl)c3oc2=O)CC1,inactive: 105%
9,Cc1cccc(-c2c3c(=O)n(C)c(=O)n(C)c3c3cnc4ccccc4n23)c1,inactive: 89%
10,Cc1c(NC(=O)Nc2ccc(C#N)cc2)c(=O)n(-c2ccccc2)n1C,inactive: 124%
11,O=C(Nc1c(Cl)cccc1Cl)c1cc(-c2cccc(O)c2)on1,active: 5%
12,Cc1ccc(NC(=O)Cn2cc(S(=O)(=O)c3ccccc3)c(=O)c3cc4c(cc32)OCO4)cc1,inactive: 130%
13,COc1ccccc1Nc1nn2c(=O)c3ccc(C(=O)NC(C)c4ccccc4)cc3nc2s1 (stereo not drawn),inactive: 85%
14,NC1(C2CCCCC2=O)CCCCC1 (stereo not drawn),inactive: 107%
15,Cc1cccc(C(=O)Nc2ccc(OCc3cc(=O)n4c5c(sc4n3)CCCC5)cc2)c1,inactive: 80%
16,O=C(N1CCOCC1)N1CCc2ccccc21,inactive: 109%
17,CCn1c(CNc2cccc(Cl)c2)nnc1SCc1ccccc1,inactive: 105%
18,COC(=O)Cc1c(C)c2cc3c(c(C)c2oc1=O)OCN(CCc1ccc(OC)cc1)C3,inactive: 87%
19,CCN(CCN(C)C)C(=O)C1CCN(S(=O)(=O)c2c(C)noc2/C=C/c2ccccc2F)CC1,inactive: 126%
20,Cc1cc(C)c2c(n1)SCCN2C(=O)Nc1ccc(C(=O)Nc2ccc(C(C)C)cc2)cc1,inactive: 67%
21,CCN(CC)c1ccc2cc(-c3nc(-c4cc(OC)c(OC)c(OC)c4)no3)c(=O)oc2c1,inactive: 100%
22,Cc1cc(C)c(NC(=O)Cn2nnc(-c3nc(-c4ccccc4)no3)c2N)c(C)c1,inactive: 59%

row,SMILES,survival
1,O=C(OC(C(=O)NC1CCCCC1)c1ccccc1)c1ccco1 (stereo not drawn),inactive: 111%
2,CC(=O)c1ccc(NC(=O)c2nc3nc(C)cc(C(F)F)n3n2)cc1,inactive: 69%
3,CCOc1ccc(-n2nc(CO)c(C(=O)NCc3cccc(OC)c3)n2)cc1,inactive: 81%
4,Cc1cc(C)cc(-n2ccn(CC(=O)Nc3ccccc3F)c(=O)c2=O)c1,inactive: 82%
5,COC(=O)c1ccc(NC(=O)COC(=O)CSc2nc(C)cc(C)n2)cc1,inactive: 96%
6,COc1cc2cc(CNc3ccccc3)c(=O)n(CC(=O)Nc3cc(C)cc(C)c3)c2cc1OC,inactive: 91%
7,O=C(CCC1N=C2c3ccccc3N=C(SCc3ccc(F)cc3)N2C1=O)NC1CCCCC1 (stereo not drawn),inactive: 71%
8,COc1ccc(-c2cc(=O)oc3c4c(ccc23)OCN(Cc2cccc(OC)c2)C4)cc1,inactive: 96%
9,COC(=O)c1ccccc1NC(=O)Cn1c(=O)n(CCCC(=O)NCc2ccccc2OC)c(=O)c2ccccc21,inactive: 131%
10,Cc1ccc(C)c(NC(=O)C(c2ccccc2)N2Cc3ccccc3C2=O)c1 (stereo not drawn),inactive: 128%
11,CCOC(=O)C1CCCN(c2c3c(nc4cc(-c5ccc(F)cc5)nn24)CCCC3)C1 (stereo not drawn),inactive: 121%
12,COc1ccccc1NC(=O)C1CCN(c2cnccn2)CC1,inactive: 86%
13,CC(=O)N1CCCc2cc(S(=O)(=O)N3CCN(c4cccc(C(F)(F)F)c4)CC3)ccc21,inactive: 113%
14,CSc1ncc(C(=O)Nc2cc(Cl)ccc2C)c(-c2ccccc2)n1,inactive: 88%
15,Cc1ccccc1-c1noc(-c2cc(-c3ccc(F)cc3)n[nH]2)n1,inactive: 83%
16,Cc1ccc(NC(=O)C2CCC(CNS(=O)(=O)c3ccc4c(c3)CCCC(=O)N4)CC2)c(C)c1 (stereo not drawn),inactive: 75%
17,COc1ccc(CN(Cc2nc3ccccc3c(=O)[nH]2)C(=O)Nc2ccccc2)cc1,inactive: 119%
18,CCOC(=O)c1ccc(NC(=O)CSc2nc3c([nH]c4ccccc43)c(=O)n2C)cc1,inactive: 59%
19,Cc1cn2c(=O)cc(COc3ccccc3NC(=O)c3ccc(Cl)cc3)nc2s1,inactive: 85%
20,Cc1ccc2oc(-c3ccc(Cl)c(NC(=O)c4ccc(OC(C)C)cc4)c3)nc2c1,inactive: 82%
21,CCCCc1nc2ccccc2n1CC(=O)N(COCC)c1c(C)cccc1CC,active: -1%
22,Cc1cc(C)cc(NC(=O)C2CCN(S(=O)(=O)c3ccc4c(c3)oc(=O)n4C)CC2)c1,inactive: 90%

row,SMILES,survival
1,O=C(/C=C/c1ccco1)NC(=S)NC1CCCCC1,inactive: 107%
2,Cc1ccc(S(=O)(=O)N(CC(=O)Nc2ccc3c(c2)OCO3)c2ccc(C)c(Cl)c2)cc1,inactive: 91%
3,CC(C)c1ccc(Nc2c(-c3ccco3)nc3ccccn23)cc1,inactive: 33%
4,COc1cc(NC(=O)c2ccc(-n3cnc4cccnc43)cc2)cc(OC)c1,inactive: 66%
5,COc1ccc(/C=C/C(=O)Nc2ccc3nc(N4CCCCC4)cc(C)c3c2)cc1OC,inactive: 76%
6,CC1Cc2ccccc2N1C(=O)CSc1nnc(-c2cccc(Cl)c2)o1 (stereo not drawn),inactive: 37%
7,CCOC(=O)c1cc(NC(=O)c2ccc(OC)cc2)c(=O)n2c1oc1ccc(Cl)cc12,inactive: 77%
8,CCn1c(CNC(=O)C23CC4CC(CC(C4)C2)C3)nnc1SCC(=O)Nc1ccc(F)cc1,inactive: 79%
9,O=C(CCc1ccccc1)NCc1ccc2c(c1)CCN2C(=O)c1ccc(Cl)cc1,inactive: 85%
10,CCOc1ccc(CCNC(=O)c2cc3c(=O)n(C)c4ccccc4c3n2C)cc1,inactive: 78%
11,O=c1[nH]c2ccc(NCc3ccccc3F)cc2[nH]1,inactive: 84%
12,CCc1cccc(NC(=O)CC2Oc3ccc(C)cc3NC2=O)c1 (stereo not drawn),inactive: 89%
13,Cc1ccc(NC(=O)CC2Sc3ccccc3NC2=O)c(Br)c1 (stereo not drawn),inactive: 138%
14,CC(Cc1ccccc1)N=C1NS(=O)(=O)c2ccccc21 (stereo not drawn),inactive: 109%
15,O=C(NCCS(=O)(=O)N1CCN(c2cccc(Cl)c2)CC1)c1cc(=O)c2ccccc2o1,inactive: 74%
16,C=C(C)Cn1c(SCC(=O)Nc2cccc(Cl)c2)nc2sc3c(c2c1=O)CCCC3,inactive: 89%
17,O=C(NCCC1=CCCCC1)c1ccc2c(c1)N(Cc1ccc(Cl)cc1)C(=O)c1ccccc1S2=O (stereo not drawn),inactive: 90%
18,CC1=C(c2ccc(C)c(C)c2)S(=O)(=O)N=C1N1CCC(C(=O)NCc2ccc(Cl)cc2)CC1,inactive: 69%
19,CCOc1ccc(C=Nc2ccc3c(c2)ncn3C)cc1,inactive: 102%
20,CCOc1ccc(NC(=O)Cn2cc(C(=O)c3ccc(CC)cc3)c(=O)c3ccc(C)nc32)cc1,inactive: 153%
21,CCOC(=O)c1cccc(NC(=O)c2cnc(N3CCCCC3)c3ccccc23)c1,inactive: 78%
22,COc1ccc(-n2c(=O)c3c(c4cc(OC)ccc4n3C)n(C)c2=O)cc1,inactive: 89%

row,SMILES,survival
1,Cc1ccc(CNC(=O)CN2CCCN(Cc3ccc(F)cc3)S2(=O)=O)cc1,inactive: 60%
2,Cc1ccc(-n2c(=O)c3cccnc3n2CC(=O)NCc2ccc(F)cc2)cc1C,inactive: 54%
3,O=C(c1ccccc1)N1CC(=O)N2CCc3ccccc3C2C1 (stereo not drawn),inactive: 94%
4,O=C(COc1ccccc1F)Nc1ccc(Cl)c(-c2nc3ccccc3[nH]2)c1,inactive: 38%
5,COc1ccc(NC(=O)CSc2nccn2Cc2ccco2)cc1OC,inactive: 73%
6,Cc1cc(C)c(/C=C/c2onc(C)c2S(=O)(=O)N2CCC(C(=O)Nc3ccc(Cl)c(C(F)(F)F)c3)CC2)c(C)c1,inactive: 73%
7,CCN(CC)S(=O)(=O)c1ccc2c(c1)N(CC(=O)Nc1c(C)cc(C)cc1C)C(=O)C1CCCN21 (stereo not drawn),inactive: 57%
8,Cc1oc2c(c1C(=O)Nc1ccc(C(=O)O)cc1)CCCC2,inactive: 113%
9,Cc1ccc2nc(NC(=O)CSc3nccn3Cc3ccccc3)sc2c1,active: 10%
10,CCOCCc1nnc(NC(=O)C(=O)c2cc(C)n(-c3cccc(Cl)c3)c2C)s1,inactive: 84%
11,COc1cc(NC(=O)c2cc(-c3cccc(Cl)c3)on2)c(OC)cc1Cl,inactive: 85%
12,CCOC(=O)c1cnc2ccccc2c1Nc1ccc(N2CCOCC2)cc1,inactive: 68%
13,COc1ccccc1NC(=O)c1nc(SCc2ccc(F)cc2)ncc1Cl,inactive: 88%
14,CCc1ccc(N2CCn3c2nc2c3c(=O)n(CCc3ccccc3)c(=O)n2C)cc1,inactive: 91%
15,Cc1cccc(Cn2c(=O)n(-c3ccc(Cl)c(Cl)c3)c(=O)c3c(C)c(C)sc32)c1,inactive: 86%
16,Cc1ccc(N(CC(=O)N2CCN(c3cc(Cl)ccc3C)CC2)S(=O)(=O)c2c(C)noc2C)cc1,inactive: 84%
17,Clc1ccc(-c2nc3ccccn3c2Nc2ccc3c(c2)OCCO3)s1,inactive: 79%
18,COc1ccc(OC)c(NC(=O)c2sc3nc4c(cc3c2N)CCCCCC4)c1,inactive: 70%
19,COc1ccc(NC(=O)c2sc3nc(C)c(C(=O)Nc4ccc(C)cc4C)c(-c4cccs4)c3c2N)cc1,inactive: 85%
20,Cc1noc2ncnc(NCc3ccccc3Cl)c12,inactive: 124%
21,CCOc1ccc(NC(=O)C(=O)NCCc2csc(-c3ccc(C)cc3)n2)cc1,inactive: 71%
22,CCN(Cc1ccccc1)C(=O)Cn1c(=O)oc2cc(S(=O)(=O)N3CCCCCC3)ccc21,inactive: 129%
